Assays:
[1] = molecular target: human PSMA (human, UniProt Q04609); test: SPR
[2] = molecular target: T1, cynomolgus monkey PSMA (cynomolgus monkey, UniProt A0A2K5VNZ0 44-750); test: SPR
T1 chain: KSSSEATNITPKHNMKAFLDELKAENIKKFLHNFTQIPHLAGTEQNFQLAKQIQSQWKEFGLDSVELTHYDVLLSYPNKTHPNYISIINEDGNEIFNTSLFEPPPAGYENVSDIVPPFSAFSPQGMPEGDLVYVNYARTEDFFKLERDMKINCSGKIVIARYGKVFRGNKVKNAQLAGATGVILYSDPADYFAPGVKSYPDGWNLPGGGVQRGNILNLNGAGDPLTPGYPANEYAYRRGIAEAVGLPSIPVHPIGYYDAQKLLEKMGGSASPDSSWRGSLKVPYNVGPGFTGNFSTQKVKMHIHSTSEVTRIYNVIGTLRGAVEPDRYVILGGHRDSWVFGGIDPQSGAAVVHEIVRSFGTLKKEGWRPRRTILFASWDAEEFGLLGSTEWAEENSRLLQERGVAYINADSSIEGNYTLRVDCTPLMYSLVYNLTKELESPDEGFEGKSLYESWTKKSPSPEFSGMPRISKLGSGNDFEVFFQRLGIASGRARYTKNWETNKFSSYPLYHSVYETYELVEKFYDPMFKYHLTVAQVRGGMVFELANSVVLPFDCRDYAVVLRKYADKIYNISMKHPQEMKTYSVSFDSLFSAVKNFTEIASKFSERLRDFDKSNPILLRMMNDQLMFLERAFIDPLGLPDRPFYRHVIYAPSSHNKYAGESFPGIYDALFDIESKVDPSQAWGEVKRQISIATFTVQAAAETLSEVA

Chain of UniProt Q04609 (Q04609 44-750): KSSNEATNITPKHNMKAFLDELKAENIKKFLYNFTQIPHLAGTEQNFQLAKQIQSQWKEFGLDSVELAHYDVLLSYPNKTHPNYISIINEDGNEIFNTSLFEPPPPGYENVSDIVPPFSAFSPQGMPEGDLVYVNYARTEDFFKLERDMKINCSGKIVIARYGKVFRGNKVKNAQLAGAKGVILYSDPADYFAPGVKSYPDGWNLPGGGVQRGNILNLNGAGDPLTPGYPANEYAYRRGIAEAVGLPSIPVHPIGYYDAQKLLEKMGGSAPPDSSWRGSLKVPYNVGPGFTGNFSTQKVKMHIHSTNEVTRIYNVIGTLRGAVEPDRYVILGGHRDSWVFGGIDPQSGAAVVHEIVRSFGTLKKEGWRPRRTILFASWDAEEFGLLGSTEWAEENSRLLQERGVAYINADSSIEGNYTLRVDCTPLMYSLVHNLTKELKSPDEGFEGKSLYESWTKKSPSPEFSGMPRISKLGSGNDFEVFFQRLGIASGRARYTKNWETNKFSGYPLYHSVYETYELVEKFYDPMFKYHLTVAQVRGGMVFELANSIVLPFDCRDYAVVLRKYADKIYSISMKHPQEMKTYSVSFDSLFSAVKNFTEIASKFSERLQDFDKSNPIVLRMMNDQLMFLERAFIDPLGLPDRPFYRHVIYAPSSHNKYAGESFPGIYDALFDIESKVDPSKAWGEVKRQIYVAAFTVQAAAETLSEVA

B1: cHv75-2a7.G1(C99Y;L328C)k-AGL-01332-93 (other)
heavy: EVQLVESGGGLVQPGGSLRLSCAASGITFSNYWMSWVRQAPGKGLEWVANIKKDGSEKFYVDSVKGRFTISRDNAKNSLYLQINSLRAEDTAMYYCAREIQLYLQHWGQGTLVTVSSASTKGPSVFPLAPSSKSTSGGTAALGCLVKDYFPEPVTVSWNSGALTSGVHTFPAVLQSSGLYSLSSVVTVPSSSLGTQTYICNVNHKPSNTKVDKKV[human IgG1 Fc with L328C (EU numbers) omitted]
light: DIQMTQSPSSVSASVGGRVTITCRASQGISNWLAWYQQKPGKAPKLLIYAASSLQSGVPSRFSGSGSGTDFTLTISNLQPEDFASYYCQQANSFPLTFGGGTKVEIKRTVAAPSVFIFPPSDEQLKSGTASVVCLLNNFYPREAKVQWKVDNALQSGNSQESVTEQDSKDSTYSLSSTLTLSKADYEKHKVYACEVTHQGLSSPVTKSFNRGEC
modifications: AGL-01332-93 drug-linker conjugated (DAR 1.86). The examples do not state the site; the name points to the engineered cysteine L328C.
Kd [1]: 17 nM
Kd [2]: 35 nM

From US20230059690A1 (published 2023)
